At least one peptide structure holds a part that was inferred or is arguable (an end, a ring closure or a residue). For some of these results: For at least one compound, name, drawing or mass did not settle the structure. Starred links: 1 amine or outer side, 2 acyl side, 3 side chain; linkers in the order of their positions; H or OH if unused. Positions of bridges follow the written chain, without caps; N, C: chain ends. Non-standard residues stand in square brackets, D forms with d. Residues, ends and D or L forms follow the SMILES beside them. Groups on a side chain read outwards from the residue. *: point of attachment. Me3N+(CH2)2O(CH2)2O(CH2)2CO = C[N+](C)(C)CCOCCOCCC(=O)*; CH2CH2OCH2CH2OCH2CH2NMe3+ = C[N+](C)(C)CCOCCOCC*; NH(CH2CH2O)2CH2CH2NMe3+ = C[N+](C)(C)CCOCCOCCN*; Trp(7-Me) = Cc1cccc2c(C[C@H](N)C(=O)O)c[nH]c12; d(hLys(Me3)) = C[N+](C)(C)CCCCC[C@@H](N)C(=O)O; Dab(NMeAc) = CC(=O)N(C)CC[C@H](N)C(=O)O; γGlu = O=C(O)[C@H](CCC(=O)[*:2])N[*:1]; 2Nal = N[C@@H](Cc1ccc2ccccc2c1)C(=O)O; AEF = NCCOc1ccc(C[C@H](N)C(=O)O)cc1; X19 = C[N+](C)(C)C[C@@H](CC(=O)O)N*; 3Pal = N[C@@H](Cc1cccnc1)C(=O)O; Myristoyl = CCCCCCCCCCCCCC(=O)*; Lys(Me) = CNCCCC[C@H](N)C(=O)O; NMeK = CN[C@@H](CCCCN)C(=O)O; Pen = CC(C)(S)[C@H](N)C(=O)O; Lauroyl = CCCCCCCCCCCC(=O)*; Thp = NC1(C(=O)O)CCOCC1; X3 = C[N+](C)(C)CCCCC*; AEEA = NCCOCCOCC(=O)O; Sar = CNCC(=O)O
Columns and labels:
[1] = Exposed Polar Surface Area (EPSA); format: physicochemical; settings: SFC on Chirex 3014 column; sample 1 mM DMSO stock
Description: Exposed Polar Surface Area (EPSA) is an experimental descriptor of molecular polarity obtained from chromatographic retention in supercritical fluid chromatography (SFC).
The stationary phase (Chirex 3014(S)-valine and (R)-1-(alpha-naphthyl) ethylamine) was selected for its balance of lipophilic and polar attributes and its capacity to separate compounds with wide polarity differences. The mobile phase consists of methanol (+Ammonium formate) and CO2. Polar compounds are retained stronger under these conditions and a low-slope gradient of methanol achieves elution based on increasing polarity of the mobile phase. Results are normalized using calibration standards generating a linear relationship between retention times and EPSA values. The unit of EPSA is Å^2.
Along with the measurement of compounds of interest, a series of 8 calibration standards (see Materials) are analyzed generating a linear relationship between retention times and EPSA value. The 8 compounds used as calibration standard have their own EPSA value defined by G. Goetz based on the comparison with TPSA (see G. Goetz, L. Philippe and M. Shapiro, “EPSA: A novel supercritical fluid chromatography technique enabling the design of permeable cyclic peptides,” ACS Med. Chem. Lett., vol. 5, pp. 1167-1172, 2014 for more information). The slope from the linear relationship between EPSA values of these eight compounds and their retention times is used to determine the EPSA value of each compound of interest that's measured under the same condition using the equation as below: […]
The mixture of calibrations standard is reinjected every 20 compounds to validate the stability of the retention time. […]
The Analyses were performed using a 4.6×50 mm Chirex 3014(S)-valine and (R)-1-(alpha- naphthyl) ethylamine column (Phenomenex, Le Pecq, France) with 5 um particle and 100A pore size. […] An equilibration time of 1 min is applied between 2 injections resulting in an injection every 6 min. each sample is analyzed in duplicate, resulting in a sample to sample turnaround time of 12 min. […]

[2] = target: T1, IL-23R (Homo sapiens, UniProt Q5VWK5); assay: IL23R Reporter Assay; format: cell-based; settings: HEK293 cells containing IL-23R, IL-12RP1 and STAT-inducible firefly luciferase reporter; 10 ng/mL IL-23 (EC90); 5 h at 37° C.
T1 construct: host or cells: HEK293
T1 sequence (Q5VWK5 24-629): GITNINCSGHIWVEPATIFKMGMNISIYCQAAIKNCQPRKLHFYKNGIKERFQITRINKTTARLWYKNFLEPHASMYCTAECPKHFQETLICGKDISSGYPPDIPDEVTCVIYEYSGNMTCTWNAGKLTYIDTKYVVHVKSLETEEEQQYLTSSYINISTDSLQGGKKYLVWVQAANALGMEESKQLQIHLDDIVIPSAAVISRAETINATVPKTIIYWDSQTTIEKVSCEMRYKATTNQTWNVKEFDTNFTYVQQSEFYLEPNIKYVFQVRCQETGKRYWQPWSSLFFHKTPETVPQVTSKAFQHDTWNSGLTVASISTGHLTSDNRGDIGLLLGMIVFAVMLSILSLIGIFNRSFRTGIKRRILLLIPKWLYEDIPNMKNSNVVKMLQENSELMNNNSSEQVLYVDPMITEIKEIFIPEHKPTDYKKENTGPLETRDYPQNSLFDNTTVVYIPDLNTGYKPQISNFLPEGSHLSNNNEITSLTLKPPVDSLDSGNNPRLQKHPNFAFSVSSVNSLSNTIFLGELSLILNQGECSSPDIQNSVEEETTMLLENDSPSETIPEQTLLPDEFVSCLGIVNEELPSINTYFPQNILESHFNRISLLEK

| Compound | EPSA [1] [Å^2] | IC50 [2] [nM] |
| --- | --- | --- |
| CC(=O)N(C)CCCC[C@@H]1NC(=O)[C@H](Cc2c[nH]c3c(C)cccc23)NC(=O)[C@H]([C@@H](C)O)NC(=O)[C@H](CC(=O)N(C)C)NC(=O)[C@@H](NC(=O)CCOCCOCC[N+](C)(C)C)C(C)(C)SSC(C)(C)[C@@H](C(=O)N[C@@H](Cc2ccc(OCCOCCOCC[N+](C)(C)C)cc2)C(=O)N[C@@H](Cc2ccc3ccccc3c2)C(=O)NC2(C(=O)N[C@@H](CCN(C)C(C)=O)C(=O)N[C@@H](CC(N)=O)C(=O)N[C@@H](Cc3cccnc3)C(=O)N(C)CC(=O)N(C)C)CCOCC2)NC1=O [compound 212, cPEG3aCO-Pen(3)-N(N(Me)2)-T-7MeW-K(NMeAc)-Pen(3)-APEG3F-2Nal-THP-Dab(NMeAc)-N-3Pya-Sar-CON(Me)2] ({Me3N+(CH2)2O(CH2)2O(CH2)2CO}-[Pen]D(NMe2)T[Trp(7-Me)][Lys(Me)](Ac)[Pen]Y(CH2CH2OCH2CH2OCH2CH2NMe3+)[2Nal][Thp][Dab(NMeAc)]N[3Pal][Sar]-NMe2; disulfide 1-6) | 138.51 |  |
| CCCCCCCCCCCCCC(=O)N[C@@H](CCC(=O)NCCOCCOCC(=O)NCCOCCOCC(=O)NCCCC[C@H](NC(=O)C1(NC(=O)[C@H](Cc2ccc3ccccc3c2)NC(=O)[C@H](Cc2ccc(OCCCCC[N+](C)(C)C)cc2)NC(=O)[C@H]2NC(=O)[C@H](CCCCN(C)C(C)=O)NC(=O)[C@H](Cc3c[nH]c4c(C)cccc34)NC(=O)[C@H]([C@@H](C)O)NC(=O)[C@H](CC(=O)N(C)C)NC(=O)[C@@H](NC(=O)[C@@H](CCCCC[N+](C)(C)C)NC(=O)COCCOCCNC(=O)COCCOCCNC(=O)CC[C@H](NC(=O)CCCCCCCCCCCCC)C(=O)O)C(C)(C)SSC2(C)C)CCOCC1)C(=O)N[C@@H](CC(N)=O)C(=O)N[C@@H](Cc1cccnc1)C(=O)N(C)CC(=O)N(C)C)C(=O)O [compound 376, C14gEPEG2PEG2CO-hk(Me)3-Pen(3)-N(N(Me)2)-T-7MeW-K(NMeAc)-Pen(3)-TMAPF-2Nal-THP-K(PEG2PEG2gEC14)-N-3Pya-Sar-CON(Me)2] ({Myristoyl-γGlu-AEEA-AEEA}-[d(hLys(Me3))][Pen]D(NMe2)T[Trp(7-Me)][Lys(Me)](Ac)[Pen]Y(X3)[2Nal][Thp]K([AEEA-AEEA-γGlu-Myristoyl])N[3Pal][Sar]-NMe2; disulfide 2-7) |  | 140 |
| COCCOCCOCCOCCOCCOCCNCCOc1ccc(C[C@H](NC(=O)[C@H]2NC(=O)[C@H](CCCCNC(C)=O)NC(=O)[C@H](Cc3c[nH]c4c(C)cccc34)NC(=O)[C@H]([C@@H](C)O)NC(=O)[C@H](CC(N)=O)NC(=O)[C@@H](NC(C)=O)C(C)(C)SSC2(C)C)C(=O)N[C@@H](Cc2ccc3ccccc3c2)C(=O)NC2(C(=O)N[C@@H](CCCCNC(C)=O)C(=O)N[C@@H](CC(N)=O)C(=O)N[C@@H](Cc3cccnc3)C(=O)N(C)CC(N)=O)CCOCC2)cc1 [compound 65] |  | 4.9 |
| CCCCCCCCCCCC(=O)N[C@@H](CCC(=O)NCCOCCOCC(=O)NCCOCCOCC(=O)NCCCC[C@@H](NC(=O)CCOCCOCC[N+](C)(C)C)C(=O)N[C@@H]1C(=O)N[C@@H](CC(=O)N(C)C)C(=O)N[C@@H]([C@@H](C)O)C(=O)N[C@@H](Cc2c[nH]c3c(C)cccc23)C(=O)N[C@@H](CCCCNC(C)=O)C(=O)N[C@H](C(=O)N[C@@H](Cc2ccc(OCCCCC[N+](C)(C)C)cc2)C(=O)N[C@@H](Cc2ccc3ccccc3c2)C(=O)NC2(C(=O)N[C@@H](CCCCN(C)C(C)=O)C(=O)N[C@@H](CC(N)=O)C(=O)N[C@@H](Cc3cccnc3)C(=O)N(C)[C@@H](CCCCNC(=O)COCCOCCNC(=O)COCCOCCNC(=O)CC[C@H](NC(=O)CCCCCCCCCCC)C(=O)O)C(N)=O)CCOCC2)C(C)(C)SSC1(C)C)C(=O)O [compound 348, cPEG3aCO-k(PEG2PEG2gEC12)-Pen(3)-N(N(Me)2)-T-7MeW-K(Ac)-Pen(3)-TMAPF-2Nal-THP-K(NMeac)-N-3Pya-NMeK(PEG2PEG2gEC12)-CONH2] ({Me3N+(CH2)2O(CH2)2O(CH2)2CO}-[dK]([AEEA-AEEA-γGlu-Lauroyl])[Pen]D(NMe2)T[Trp(7-Me)]K(Ac)[Pen]Y(X3)[2Nal][Thp][Lys(Me)](Ac)N[3Pal][NMeK]([AEEA-AEEA-γGlu-Lauroyl])-NH2; disulfide 2-7) |  | 150 |
| CCCCCCCCCCCCCC(=O)N[C@@H](CCC(=O)NCCOCCOCC(=O)NCCOCCOCC(=O)NCCCC[C@H](NC(=O)C1(NC(=O)[C@H](Cc2ccc3ccccc3c2)NC(=O)[C@H](Cc2ccc(OCCCCC[N+](C)(C)C)cc2)NC(=O)[C@H]2NC(=O)[C@H](CCCCN(C)C(C)=O)NC(=O)[C@H](Cc3c[nH]c4c(C)cccc34)NC(=O)[C@H]([C@@H](C)O)NC(=O)[C@H](CC(=O)N(C)C)NC(=O)[C@@H](NC(=O)CCOCCOCC[N+](C)(C)C)C(C)(C)SSC2(C)C)CCOCC1)C(=O)N[C@@H](CC(N)=O)C(=O)N[C@@H](Cc1cccnc1)C(=O)N(C)CC(=O)N(C)C)C(=O)O [compound 402, cPEG3aCO-Pen(3)-N(N(Me)2)-T-7MeW-K(NMeAc)-Pen(3)-TMAPF-2Nal-THP-K(PEG2PEG2gEC14)-N-3Pya-Sar-CON(Me)2] ({Me3N+(CH2)2O(CH2)2O(CH2)2CO}-[Pen]D(NMe2)T[Trp(7-Me)][Lys(Me)](Ac)[Pen]Y(X3)[2Nal][Thp]K([AEEA-AEEA-γGlu-Myristoyl])N[3Pal][Sar]-NMe2; disulfide 1-6) |  | 13 |
| CC(=O)NCCCC[C@@H]1NC(=O)[C@H](Cc2c[nH]c3c(C)cccc23)NC(=O)[C@H]([C@@H](C)O)NC(=O)[C@H](CC(N)=O)NC(=O)[C@@H](NC(C)=O)C(C)(C)SSC(C)(C)[C@@H](C(=O)N[C@@H](Cc2ccc(OCCN)cc2)C(=O)N[C@@H](Cc2ccc3ccccc3c2)C(=O)NC2(C(=O)N[C@@H](CCC(=O)O)C(=O)N[C@@H](CC(N)=O)C(=O)N[C@@H](Cc3cccnc3)C(=O)N(C)CC(=O)NCCOCCOCC[N+](C)(C)C)CCOCC2)NC1=O [compound 134] (Ac-[Pen]NT[Trp(7-Me)]K(Ac)[Pen][AEF][2Nal][Thp]EN[3Pal][Sar]-{NH(CH2CH2O)2CH2CH2NMe3+}; disulfide 1-6) |  | 2.1 |
| CC(=O)NCCCC[C@@H]1NC(=O)[C@H](Cc2c[nH]c3c(C)cccc23)NC(=O)[C@H]([C@@H](C)O)NC(=O)[C@H](CC(N)=O)NC(=O)[C@@H](NC(C)=O)C(C)(C)SSC(C)(C)[C@@H](C(=O)N[C@@H](Cc2ccc(OCCN)cc2)C(=O)N[C@@H](Cc2ccc3ccccc3c2)C(=O)NC2(C(=O)N[C@@H](CCC(=O)N[C@H](CC(=O)O)C[N+](C)(C)C)C(=O)N[C@@H](CC(N)=O)C(=O)N[C@@H](Cc3cccnc3)C(=O)N(C)CC(N)=O)CCOCC2)NC1=O [compound 127] (Ac-[Pen]NT[Trp(7-Me)]K(Ac)[Pen][AEF][2Nal][Thp]E(X19)N[3Pal][Sar]-NH2; disulfide 1-6) |  | 2.6 |
